# Whole data set: some 81,000 sequences, median “one-hybrid fitness for binding parS DNA” near -0.17, cut for the highest 2% near 0.51. The list shows a part of the results.
# B1: Caulobacter ParB omega fusion; a variant is named by its letters at X, in order, B8GW30 (parent)
# chain: MESVVVGEPGMSEGRRGLGRGLSALLGEVDAAPAQAPGEQLGGSREAPIEILQRNPDQPRRTFREEDLEDLSNSIREKGVLQPILVRPSPDTAGEYQIVAGERAWRAAQRAGLKTVPIMVRELDDLAVLEIGIIENVQRADLNVLEEALSYKVLMEKFERTQENIAQTIGKSXSHVANXMRLLXLPDEVQSYLVSGELTAXHARAIAAAADPVALAKQIIEGGLSVRETEALARKAPNLSAGKSKGGRPPRVKDTDTQALESDLSSVLGLDVSIDHRGSTGTLTITYATLEQLDDLCNRLTRGI
# Variants of: B1
# Test: one-hybrid fitness for binding parS DNA (scaled: cognate 1, non-cognate 0); higher = stronger binding
# Details: with parS DNA site
# Procedure, shortened: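 Caulobacter ParB libraries with four specificity codons randomised were screened by bacterial one-hybrid selection in the E. coli USO strain, using a HIS3 reporter whose site lies 19 bp from the promoter. Selection ran for 48 hours at 37°C on M9 lacking histidine, with 0.1 mM IPTG and 5 mM 3-AT. Plasmids were Illumina-sequenced before and after selection, three replicate libraries were pooled, and variants with under 10 reads were dropped. Fitness is the log change in each variant's read ratio to wild type, rescaled against the cognate and non-cognate sites.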
row,Variant,one-hybrid fitness for binding parS DNA
1,LRAQ,≤ 0.2
2,SQKK,≤ 0.2
3,TGRG,≤ 0.2
4,KRKG,≤ 0.2
5,QRCY,≤ 0.2
6,LAWY,≤ 0.2
7,YQLC,≤ 0.2
8,MLIN,≤ 0.2
9,RYNE,≤ 0.2
10,PHVY,≤ 0.2
11,EQVT,≤ 0.2
12,TYAY,≤ 0.2
13,IDYY,≤ 0.2
14,NMMR,≤ 0.2
15,RSME,≤ 0.2
16,VVWL,≤ 0.2
17,VMVC,≤ 0.2
18,ATTR,≤ 0.2
19,QLKF,≤ 0.2
20,FTFS,≤ 0.2
21,DVGR,≤ 0.2
22,PLLM,≤ 0.2
23,TLGK,≤ 0.2
24,GRGV,≤ 0.2
25,FSGC,≤ 0.2
26,ISGS,≤ 0.2

row,Variant,one-hybrid fitness for binding parS DNA
1,RCQA,0.593
2,INCD,≤ 0.2
3,SDVD,≤ 0.2
4,YLLI,≤ 0.2
5,VNVD,≤ 0.2
6,PCCF,≤ 0.2
7,IMYV,≤ 0.2
8,QKKH,≤ 0.2
9,HGPK,≤ 0.2
10,PSNV,≤ 0.2
11,WSQD,≤ 0.2
12,QRMQ,≤ 0.2
13,VNNH,≤ 0.2
14,EHMC,≤ 0.2
15,EFHT,≤ 0.2
16,AFAC,≤ 0.2
17,QAAV,≤ 0.2
18,QEQC,≤ 0.2
19,TGVM,≤ 0.2
20,TLCS,≤ 0.2
21,FLNS,≤ 0.2
22,HMSF,≤ 0.2
23,SNIF,≤ 0.2
24,ATIR,≤ 0.2
25,GTLF,≤ 0.2
26,RGFW,≤ 0.2

row,Variant,one-hybrid fitness for binding parS DNA
1,WYCG,≤ 0.2
2,KVCG,≤ 0.2
3,RYKT,0.708
4,TQFL,≤ 0.2
5,KSAA,≤ 0.2
6,YERA,≤ 0.2
7,HFRG,0.245
8,QVAK,≤ 0.2
9,CLLY,≤ 0.2
10,RFLF,≤ 0.2
11,GTTI,≤ 0.2
12,HYWL,≤ 0.2
13,SAHL,≤ 0.2
14,YIHT,≤ 0.2
15,VNNL,≤ 0.2
16,RHTD,≤ 0.2
17,PVYM,≤ 0.2
18,RLER,≤ 0.2
19,MATC,≤ 0.2
20,RYAE,≤ 0.2
21,VLNP,≤ 0.2
22,HQVT,≤ 0.2
23,APAH,≤ 0.2
24,WGDA,≤ 0.2
25,RQGQ,≤ 0.2
26,QVPN,≤ 0.2

row,Variant,one-hybrid fitness for binding parS DNA
1,TSRS,≤ 0.2
2,SAGL,≤ 0.2
3,LVLI,≤ 0.2
4,TDWS,≤ 0.2
5,DVDV,≤ 0.2
6,HLSV,≤ 0.2
7,PLSM,≤ 0.2
8,QVTY,≤ 0.2
9,NSSC,≤ 0.2
10,FHYR,≤ 0.2
11,TSWD,≤ 0.2
12,WMTG,≤ 0.2
13,MMNS,≤ 0.2
14,NIML,≤ 0.2
15,AHGA,≤ 0.2
16,PYWV,≤ 0.2
17,PRQN,≤ 0.2
18,APSN,≤ 0.2
19,QQYL,≤ 0.2
20,INHH,≤ 0.2
21,LMAC,≤ 0.2
22,DVIL,≤ 0.2
23,QHMG,≤ 0.2
24,CGWS,≤ 0.2
25,NEVC,≤ 0.2
26,TEGM,≤ 0.2

row,Variant,one-hybrid fitness for binding parS DNA
1,RKRS,0.747
2,RMRW,0.586
3,PFKI,≤ 0.2
4,SQCW,≤ 0.2
5,AQVG,≤ 0.2
6,NNHH,≤ 0.2
7,QVEW,≤ 0.2
8,SLWK,≤ 0.2
9,PHLA,≤ 0.2
10,VVEN,≤ 0.2
11,QPLH,≤ 0.2
12,PSWT,≤ 0.2
13,AHAN,≤ 0.2
14,HACK,≤ 0.2
15,PFIG,≤ 0.2
16,ALKW,≤ 0.2
17,REMI,≤ 0.2
18,KIFF,≤ 0.2
19,MIEP,≤ 0.2
20,TGMA,≤ 0.2
21,APPS,≤ 0.2
22,RKTC,0.793
23,LEVT,≤ 0.2
24,SLDP,≤ 0.2
25,EHES,≤ 0.2
26,MPPG,≤ 0.2

row,Variant,one-hybrid fitness for binding parS DNA
1,HSSR,≤ 0.2
2,HGQA,≤ 0.2
3,SNAD,≤ 0.2
4,NAPD,≤ 0.2
5,TEFD,≤ 0.2
6,DPPD,≤ 0.2
7,INRF,≤ 0.2
8,YDQL,0.202
9,QAGD,≤ 0.2
10,LLMP,≤ 0.2
11,WAIM,≤ 0.2
12,RQHH,0.292
13,ALVT,≤ 0.2
14,MGPF,≤ 0.2
15,PIST,≤ 0.2
16,FMKT,≤ 0.2
17,ETTS,≤ 0.2
18,PQGR,≤ 0.2
19,SSQL,≤ 0.2
20,GTDS,≤ 0.2
21,SAHG,≤ 0.2
22,VILN,≤ 0.2
23,WQKY,≤ 0.2

# Source: a collection of fitness landscapes (doi:10.1016/j.celrep.2020.107928)
